# Test results as given in PubChem BioAssay AID761 (NMMLSC, 2007).
# The whole screen tested about 190,000 compounds, of which about 400 (0.21%) were called active. Inconclusive means that the source gave no clear call. Such entries were picked first, then a sample of the others.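 How the source made its calls: active means percent activity GTP binding at least 20 points away from the 100% baseline, either down as inhibitor or up as activator; inconclusive means compound flagged as likely green fluorescent from well-wide comparison; inactive means the rest.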
# Target: Cell division control protein 42 homolog (Homo sapiens) (UniProt P60953)
# UniProt P60953, sequence (P60953 whole entry, looked up): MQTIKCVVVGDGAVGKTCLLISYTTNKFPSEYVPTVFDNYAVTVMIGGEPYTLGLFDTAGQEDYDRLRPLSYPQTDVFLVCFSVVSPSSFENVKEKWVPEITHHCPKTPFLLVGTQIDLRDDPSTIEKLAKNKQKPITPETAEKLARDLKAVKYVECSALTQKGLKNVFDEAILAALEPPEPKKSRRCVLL
# Assay: wildtype Cdc42 fluorescent GTP binding changes, either direction – biochemical, multiplex bead flow cytometry, Bodipy-GTP, primary screen (AID 761);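 further: median bead fluorescence of bound Bodipy-FL-GTP at 100 nM; 0% = excess unlabeled GTP control and 100% = no compound control; below 100% means less GTP binding so inhibitor and above means activator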
# Details: GST-Cdc42 beads, at 10 µM, actives lie on both sides
row,SMILES,percent activity (GTP binding)
1,COC(=O)c1cc(NC(=O)c2cccs2)ccc1N1CCOCC1,inconclusive: 94%
2,N#Cc1ccc(-c2ccc(OCC(=O)NCC(=O)Nc3ccc(F)c(F)c3F)cc2)cc1,inconclusive: 103%
3,Cc1ccc(-c2nc3cccnc3s2)cc1NC(=O)C1c2ccccc2Oc2ccccc21,inactive: 99%
4,NNC(=O)c1ccc(Cn2cc(Br)cn2)cc1,inconclusive: 108%
5,CCCc1nc2c(=O)n(C)c(=O)nc-2n(C)n1,active: 74%
6,O=C(N/N=C/c1ccccn1)c1cccs1,inactive: 96%
7,COc1ccc(-c2cc(C(F)(F)F)nc(-n3ccnc3)n2)cc1,inactive: 91%
8,Cc1nc(SCC(=O)O)c(C#N)c(C)c1CC(=O)c1ccccc1,inactive: 94%
9,CN1CC(=O)N(CC(=O)Nc2cccc(S(=O)(=O)N3CCOCC3)c2)C1=O,inactive: 99%
10,COCCCNC(=S)N1CCN(c2ccccc2)CC1,inactive: 96%
11,CCOC(=O)c1c(NC(=O)c2cc(-c3ccc(O)cc3)on2)sc(C(C)=O)c1C,inactive: 101%
12,CCc1nnc(NC(=O)Cc2ccc(Br)cc2)s1,inconclusive: 99%
13,COc1ccc(NC(=O)c2ccc(Cl)nc2)cc1S(=O)(=O)N1CCCCC1,inconclusive: 90%
14,CN(C(=O)COC(=O)CNC(=O)c1sc2ccccc2c1Cl)c1ccccc1,inactive: 95%
15,CCCn1nc(C(=O)Nc2cccc(C(=O)OC)c2)c2ccccc2c1=O,inconclusive: 90%
16,O=C(Nc1ccc2[nH]c(=O)[nH]c2c1)c1c(F)c(F)c(F)c(F)c1F,inactive: 93%
17,O=C(c1ccc(S(=O)(=O)NCc2ccco2)cc1)N1CCN(Cc2ccccc2)CC1,inconclusive: 97%
18,Fc1cccc(F)c1-n1c(CN2CCOCC2)csc1=S,inconclusive: 95%
19,COc1ccccc1N1CCN(c2ccc([N+](=O)[O-])cc2Cl)CC1,inactive: 102%
20,CC(Sc1nnc(NC2CCCCC2)s1)C(=O)Nc1ccc2c(c1)C(=O)c1ccccc1C2=O (stereo unspecified),inactive: 89%
21,CCC(CC)C(=O)c1c[nH]c(C(=O)NCc2cccnc2)c1,inconclusive: 96%
22,Cc1cccc(C(=O)c2ccccc2C(=O)O)c1O,inconclusive: 114%
23,Cc1ccc(CNC(=O)Cc2csc(Nc3nc(=S)[nH]c4ccccc34)n2)cc1,inconclusive: 96%
24,CCN(CC)C(=O)CCCC(=O)N(CC)CC,inactive: 98%
25,CCO[C@H]1OC(C(=O)N2CCN(Cc3ccc4c(c3)OCO4)CC2)=C[C@@H](C)[C@@H]1CCCO,inactive: 95%
26,OC1(c2cccc(C(F)(F)F)c2)CCN(c2ncnc3c2[nH]c2ccc(F)cc23)CC1,inconclusive: 92%
